About 14,000 (4.5%) of roughly 310,000 compounds showed an effect of 50% or more. The effect is printed as a negative number. Some of the results follow.
These compounds were tested against human ether-à-go-go-related gene (hERG) potassium channel (human, UniProt Q12809) (assay: primary screen, population patch clamp on CHO cells stably expressing hERG).
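Also: peak tail current of the secondary pulse compared with the same well before compound.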

Sequence of human ether-à-go-go-related gene (hERG) potassium channel (Q12809 whole entry, looked up): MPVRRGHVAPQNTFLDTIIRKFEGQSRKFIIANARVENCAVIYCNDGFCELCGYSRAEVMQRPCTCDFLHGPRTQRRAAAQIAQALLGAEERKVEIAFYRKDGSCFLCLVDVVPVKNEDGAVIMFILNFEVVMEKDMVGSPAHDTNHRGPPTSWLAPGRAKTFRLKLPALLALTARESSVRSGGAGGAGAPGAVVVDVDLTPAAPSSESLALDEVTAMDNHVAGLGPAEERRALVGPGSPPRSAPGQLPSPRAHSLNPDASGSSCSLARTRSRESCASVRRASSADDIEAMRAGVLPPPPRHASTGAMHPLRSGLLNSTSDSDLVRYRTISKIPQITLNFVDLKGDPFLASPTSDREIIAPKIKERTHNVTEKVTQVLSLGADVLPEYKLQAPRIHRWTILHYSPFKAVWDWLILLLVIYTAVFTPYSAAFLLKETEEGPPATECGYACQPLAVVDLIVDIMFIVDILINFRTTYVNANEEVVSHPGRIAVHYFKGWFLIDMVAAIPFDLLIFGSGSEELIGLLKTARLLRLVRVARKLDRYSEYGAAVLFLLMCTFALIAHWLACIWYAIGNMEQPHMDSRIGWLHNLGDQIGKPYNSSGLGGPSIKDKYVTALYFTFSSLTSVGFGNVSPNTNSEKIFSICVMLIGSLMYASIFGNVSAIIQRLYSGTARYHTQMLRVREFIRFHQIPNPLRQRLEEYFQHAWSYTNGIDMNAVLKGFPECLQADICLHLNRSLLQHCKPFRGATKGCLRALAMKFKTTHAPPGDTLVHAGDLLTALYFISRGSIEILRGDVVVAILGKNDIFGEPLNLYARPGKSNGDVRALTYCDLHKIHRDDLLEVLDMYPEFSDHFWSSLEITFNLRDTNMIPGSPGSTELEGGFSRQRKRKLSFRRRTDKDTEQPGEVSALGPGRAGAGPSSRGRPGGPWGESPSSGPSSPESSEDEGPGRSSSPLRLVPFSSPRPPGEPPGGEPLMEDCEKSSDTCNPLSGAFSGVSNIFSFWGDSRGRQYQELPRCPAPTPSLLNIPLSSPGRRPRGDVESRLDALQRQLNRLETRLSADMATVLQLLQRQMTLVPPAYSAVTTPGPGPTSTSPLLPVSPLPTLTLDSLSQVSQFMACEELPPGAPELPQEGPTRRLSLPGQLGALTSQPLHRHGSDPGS

| Structure (SMILES) | hERG current change (%, negative = inhibition) at 10uM |
| --- | --- |
| CCOC(=O)Cc1csc(NS(=O)(=O)c2ccc(Br)cc2)n1 | -0.344% |
| O=S(=O)(NCc1ccccc1)c1ccc(S(=O)(=O)N(Cc2ccccn2)Cc2ccco2)cc1 | 15.1% |
| O=C(CCn1c(=S)oc2ccccc21)NCCC1=CCCCC1 | 1.51% |
| CCOC(=O)c1c(C)[nH]c(C)c1C(=O)COC(=O)c1ccccc1O | -16% |
| CCOc1ccc(C(=O)COc2ccc(NC(C)=O)cc2)cc1 | 13.2% |
| O=C(CCn1cccn1)Nc1ccc(-c2ccno2)cc1 | 14.4% |
| COc1ccc(OC)c(/C=N/Nc2nncn2/N=C/c2cc(OC)ccc2OC)c1 | -26.6% |
| COCCCNC(=S)NNC(=S)Nc1ccc(OC)cc1 | 11.6% |
| Cc1cc(C)c2c(-n3cccc3)c(C(=O)NNS(=O)(=O)c3ccccc3)sc2n1 | 8.4% |
| CCOc1ccc(NS(=O)(=O)c2ccc3[nH]cc(C(=O)NCCOC)c(=O)c3c2)cc1 | 12.4% |
| COc1ccccc1Cn1c(-c2ccco2)nc2nc3ccccc3nc21 | -4.67% |
| COc1ccc2nc(C3CCCCC3)nc(C3CCCCC3)c2c1 | 10.7% |
| Cc1ccc(S(=O)(=O)N2CCN(C(=O)Cn3c(=O)cnc4ccccc43)CC2)cc1 | -7.34% |
| CCCn1nc(NS(=O)(=O)c2ccc(F)cc2)c2cc3ccccc3nc21 | 18.1% |
| C=CCc1c(C)nc(C)nc1N/N=C/c1ccccc1 | -19.2% |
| COc1c(O)cc2c(c1O)C1OC(CO)C(O)C(O)C1OC2=O.O (centres unmarked) | -5.86% |
| CCCc1cc(=O)oc2cc(C)cc(OCC(=O)NCc3ccncc3)c12 | -69.5% |
| Cc1ccc(OCC(=O)NCCS(=O)(=O)N2CCN(c3ccccc3)CC2)cc1 | -10.1% |
| CCOc1cc(/C=C2/C(=N)N3C=CSC3=NC2=O)ccc1OCCCOc1ccccc1C | 5.99% |

| Structure (SMILES) | hERG current change (%, negative = inhibition) at 10uM |
| --- | --- |
| CCCN1CCc2c(sc(NC(=O)c3ccc(S(=O)(=O)N4CCN(C(=O)OCC)CC4)cc3)c2C(N)=O)C1 | -2.25% |
| O=S(=O)(c1ccc(Br)cc1Cl)N1CC[NH+](CCO)CC1.[Cl-] | 3.35% |
| Cc1ccc(Nc2nnc(-c3ccccc3N)o2)cc1C | 11.9% |
| CCOC(=O)C1CCN(C(=O)CCNS(=O)(=O)c2ccc3c(c2)CCN3C(=O)CC)CC1 | 7.82% |
| Cc1cc(Cl)ccc1Oc1ccc(C(N)=O)cc1[N+](=O)[O-] | 0.613% |
| O=C(CN1C(=O)COc2ccc(Cl)cc21)Nc1ccc2c(c1)OCCO2 | 18.3% |
| COc1ccc(-c2csc(NC(=O)CCS(=O)(=O)c3ccccc3)n2)c(OC)c1 | 9.71% |
| COC(=O)c1oc2ccc(Br)cc2c1-n1cccc1 | 9.07% |
| CC1(c2cccc(Br)c2)NC(=O)N(CC(=O)Nc2ccc(F)cc2)C1=O (centres unmarked) | -3.61% |
| S=C(c1ccc(N2CCCC2)cc1)N1CCCCC1 | 2.75% |
| CCn1c(SCC(=O)N2CCCCC2)nc2c(c1=O)SC(C)C2 (centres unmarked) | 10.1% |
| COc1ccc(/C=N/N2CCOCC2)cc1O | 8.19% |
| Cc1c(C)c(C)c(C(=O)CCc2cccc(NC(=O)CCC(=O)O)c2)c(C)c1C | 9.99% |
| N#C/C(=C\c1ccc2c(c1)OCCO2)C(=O)Nc1nccs1 | 14.2% |
| Cc1cc([N+](=O)[O-])nn1CCCC(=O)Nc1cc(Oc2ccccc2)cc([N+](=O)[O-])c1 | -2.84% |
| CCc1noc(C)c1C(=O)NNC(=O)c1cc(OC)cc(OC)c1 | 5.15% |
| O=C(CC(C(=O)O)C1CCCO1)NCCc1ccc2c(c1)OCO2 (centres unmarked) | -8.7% |
| COc1ccc2ccccc2c1/C=N/NC(=O)c1cccc(Br)c1 | 3.3% |
| CC(=O)NCC(=O)OCC(=O)c1ccc(Br)cc1 | -6.8% |

| Structure (SMILES) | hERG current change (%, negative = inhibition) at 10uM |
| --- | --- |
| Cc1cc(N2C(=O)C(O)=C(C(=O)c3ccco3)C2c2ccc(O)cc2)no1 (centres unmarked) | 20.7% |
| Cc1cc(=O)[nH]c(SCC(=O)O)c1C#N | 23.5% |
| Cc1cc(C(=O)NC2CCCCC2)c2cc(F)ccc2n1 | 7.5% |
| CC(C)C(NS(=O)(=O)c1cccs1)C(=O)N1CCc2ccccc2C1 (centres unmarked) | 5.66% |
| Cc1ccc(N2C(=O)N(CC(=O)Nc3cc(F)ccc3C)C(=O)C2C)cc1 (centres unmarked) | 13% |
| COCCn1c(N)c(N(Cc2ccccc2)C(=O)CSCC(=O)Nc2ccc(C)cc2)c(=O)[nH]c1=O | 3.11% |
| Cc1ccccc1N1CCN(C(=O)CN2C(=O)c3ccccc3C2=O)CC1 | -11.8% |
| Cc1cc(C)c(C#N)c(SCS(=O)c2ccc(C(C)(C)C)cc2)n1 (centres unmarked) | -28.5% |
| Cc1c(/C=N/NC(=O)c2cc(Br)ccc2O)c(=O)n(C)c(=O)n1C | 3.23% |
| Cc1ccc(C)c(S(=O)(=O)N2CCCOC2CNC(=O)C(=O)NCCC2=CCCCC2)c1 (centres unmarked) | 9.43% |
| COc1cc(CCCN2C(N)=NC[C@@H]2Cc2ccccc2)cc(OC)c1OC | 13.3% |
| O=C(O)CC1=C(Nc2ccccc2)C(=O)N(c2ccccc2)C1c1ccc(F)cc1 (centres unmarked) | -10.6% |
| Cc1cc(NC(=O)CSCCc2ccncc2)no1 | 8.74% |
| O=C(Nc1ccc2oc(=O)ccc2c1)c1ccc2ccccc2c1 | 19.4% |
| COc1ccc(C2C3=C(CCCC3=O)NC3=C2C(=O)c2ccccc23)cc1 (centres unmarked) | 3.5% |
| CCOc1ccc(C(C)=O)cc1CC(C(N)=O)C(N)=O | 14.6% |
| Cl.N=C(N)SCc1ccc(O)c([N+](=O)[O-])c1 | -0.169% |
| Cc1cc(C)cc(C(=O)OCC(=O)NC2CCCC2)c1 | -1.77% |

From publication PMC4336329 (PLoS ONE, 2015)
